Laboratory results reported in PubChem BioAssay AID1030 (National Center for Advancing Translational Sciences (NCATS), 2008).
Screen size: about 220,000 compounds; about 16,000 (7.3%) were called active. This list was built around the results that the source calls inconclusive (neither active nor inactive); the mix of calls is not that of the screen. Calls follow the shape of the dose curve; as a rule, active = well fitted inhibition curve with a large enough effect (not every such curve was filed as active); inconclusive = small, poorly fitted or top-dose-only effect, or another doubt; inactive = no such curve, though single readings can be large or run the other way. Potencies of inconclusive entries are left out as doubtful fits. More than one record can exist for a structure, and the calls need not agree.

molecular target: Aldehyde dehydrogenase 1A1 (Homo sapiens) (UniProt P00352); assay: qHTS Assay for Inhibitors of Aldehyde Dehydrogenase 1 (ALDH1A1); conditions: Purified ALDH1A1, NADH fluorescence, propionaldehyde substrate; series mostly up to 75.3 µM
UniProt P00352, sequence (P00352 whole entry, looked up): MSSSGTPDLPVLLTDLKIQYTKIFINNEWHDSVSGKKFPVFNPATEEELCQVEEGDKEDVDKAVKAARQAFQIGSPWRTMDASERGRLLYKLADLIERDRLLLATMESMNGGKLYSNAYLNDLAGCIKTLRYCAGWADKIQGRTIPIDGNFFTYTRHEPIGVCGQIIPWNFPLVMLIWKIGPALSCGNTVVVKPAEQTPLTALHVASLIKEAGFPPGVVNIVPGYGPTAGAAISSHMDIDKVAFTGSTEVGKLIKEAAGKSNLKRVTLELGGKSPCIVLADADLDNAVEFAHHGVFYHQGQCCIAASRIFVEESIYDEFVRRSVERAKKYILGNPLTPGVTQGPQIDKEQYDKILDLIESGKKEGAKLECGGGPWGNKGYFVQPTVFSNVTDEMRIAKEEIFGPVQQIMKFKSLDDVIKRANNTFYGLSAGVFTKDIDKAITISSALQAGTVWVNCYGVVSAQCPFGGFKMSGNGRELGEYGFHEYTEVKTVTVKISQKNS
Potency is read from the fitted curve at half-maximal effect; tags tell the direction and shape of the fitted curve.

Question: Which Potency does the source give for C=CCN(CC=C)CCOc1ccc(OC(C)C)cc1 here?
Answer: inconclusive [inhibitor, single point]

Question: O=c1[nH]c2ccc(S(=O)(=O)NCc3ccccn3)cc2s1 was tested. Which Potency did it give?
Answer: inconclusive [inhibitor, single point]

Question: How did the Potency turn out when CCc1ccc(C2NC(=S)NC3=C2C(=O)CC(C)(C)C3)cc1 (stereo not drawn) was run?
Answer: active: 2.51 µM

Question: How did the Potency turn out when COc1ccc(C2N(c3cc(Cl)ccc3OC)C(=O)C3CCCN32)cc1OC (stereo not drawn) was run?
Answer: inconclusive [inhibitor, single point]

Question: How did the Potency turn out when O=C1CCc2cc(OCCCCc3nnnn3C3CCCCC3)ccc2N1 was run?
Answer: active: 25.1 µM

Question: CCOc1ccc(S(=O)(=O)N(C)c2ccc(OCC(=O)NCc3cccnc3)cc2)cc1 was tested. Which Potency did it give?
Answer: inconclusive [inhibitor, partial curve]

Question: Which Potency does the source give for Cc1ccc(C)c2[nH]c(=O)c(C(c3nnnn3Cc3ccco3)N3CCc4ccccc4C3)cc12 (stereo not drawn) here?
Answer: inconclusive [inhibitor, partial curve]

Question: O=C(Cn1ccc([N+](=O)[O-])n1)N1CCc2ccccc21 was tested. Which Potency did it give?
Answer: inconclusive [inhibitor, single point]

Question: How did the Potency turn out when O=C(Nc1ccc(Cl)cn1)c1ccc2c(c1)OCCO2 was run?
Answer: inactive

Question: For CC1CCN(S(=O)(=O)c2ccc(NC(=O)CN3CCOCC3)cc2)CC1, which Potency is on record?
Answer: inconclusive [inhibitor, single point]

Question: Which Potency does the source give for CC(C)CCNCC(=O)NC(c1ccccc1)c1ccccc1 here?
Answer: inconclusive [inhibitor, single point]

Question: Clc1ccc(-c2cn3cc(Br)ccc3n2)cc1Cl was tested. Which Potency did it give?
Answer: inconclusive [inhibitor, single point]

Question: For COc1cc(C(=O)Oc2ccc3c(c2)OCC3=O)cc(OC)c1OC, which Potency is on record?
Answer: inconclusive [inhibitor, single point]

Question: With CCS(=O)(=O)CCn1c([N+](=O)[O-])cnc1C as the compound, how does the Potency read?
Answer: inactive

Question: Cc1cc(C)nc(SCC(=O)N/N=C/c2cccn2-c2ccc(O)cc2)n1 was tested. Which Potency did it give?
Answer: inactive

Question: How did the Potency turn out when Cc1noc(C)c1-c1nc(NC2CCNCC2)c2ccccc2n1 was run?
Answer: inactive

Question: How did the Potency turn out when COc1ccc(CN(CC2CCCO2)C(=O)c2cc3sccc3n2C)c(OC)c1 (stereo not drawn) was run?
Answer: active: 11.2 µM

Question: With CCNC(=S)NNC(=O)c1cc(-c2cc(C)ccc2C)nc2ccccc12 as the compound, how does the Potency read?
Answer: inconclusive [inhibitor, single point]

Question: With C=CCN1C(=O)N/C(=C/c2ccc(C)o2)C1=O as the compound, how does the Potency read?
Answer: active: 7.94 µM

Question: For COc1cccc(C2C3CN(C)CC=C3C(C#N)=C(N)C2(C#N)C#N)c1OC (stereo not drawn), which Potency is on record?
Answer: inconclusive [inhibitor, single point]

Question: Which Potency does the source give for CCCCOc1ccc(N2C(=O)CC(NCc3ccncc3)C2=O)cc1 (stereo not drawn) here?
Answer: inactive

Question: COc1cc(/C=N/NC(=O)CC2(C)OCCO2)cc(Br)c1O was tested. Which Potency did it give?
Answer: inconclusive [inhibitor, single point]

Question: How did the Potency turn out when O=c1cc(CN2CCN(S(=O)(=O)/C=C/c3ccccc3)CC2)c2ccc(O)cc2o1 was run?
Answer: inconclusive [inhibitor, partial curve]

Question: For N#CCC(=O)Nc1sc2c(c1C(N)=O)CCCC2, which Potency is on record?
Answer: inconclusive [inhibitor, full curve]

Question: CCOC(=O)c1c(-c2ccccc2)csc1NC(=O)CSc1ccccc1 was tested. Which Potency did it give?
Answer: inconclusive [inhibitor, partial curve, poor fit]

Question: Cc1ccc(S(=O)(=O)N2CCN(C(=O)CSc3nc(N)cc(=O)[nH]3)CC2)c(C)c1 was tested. Which Potency did it give?
Answer: inactive

Question: How did the Potency turn out when COc1ccc(C2=NN(C(N)=S)C(c3ccccc3)C2)cc1 (stereo not drawn) was run?
Answer: active: 7.51 µM

Question: NNc1nc(C(F)(F)F)nc2ccccc12 was tested. Which Potency did it give?
Answer: inconclusive [inhibitor, single point]

Question: With CCC1(CC)Cc2ccccc2C(CC(=O)N2CCOCC2)=N1 as the compound, how does the Potency read?
Answer: inconclusive [inhibitor, single point]

Question: CC(C)=C1C(=O)C(c2ccccc2)=C2CN3C(=O)N(CCc4ccccc4)C(=O)[C@]3(Cc3ccc(C(F)(F)F)cc3)[C@H]21 was tested. Which Potency did it give?
Answer: inactive

Question: How did the Potency turn out when Cc1ccc(C)c(-n2c(=O)c(C#N)cc3c(=O)n4ccccc4nc32)c1 was run?
Answer: inconclusive [inhibitor, partial curve]

Question: Which Potency does the source give for CCCc1nc(NCc2ccccc2)c(C#N)c2c1CCCC2 here?
Answer: inconclusive [inhibitor, partial curve]

Question: With COc1ccc(C(=O)N/N=C/c2cn[nH]c2-c2ccc(OC)cc2OC)cc1 as the compound, how does the Potency read?
Answer: inconclusive [inhibitor, single point]

Question: For CCOc1ccc(N(CC(=O)OC)S(=O)(=O)c2ccc(OC)c(OC)c2)cc1, which Potency is on record?
Answer: inactive

Question: With CCOC(=O)C1=C(C)Nc2nc(SCC)nn2C1c1ccc(OC)cc1 (stereo not drawn) as the compound, how does the Potency read?
Answer: inconclusive [inhibitor, single point]

Question: Which Potency does the source give for Cc1csc(NC(=O)c2sc3nc(-c4cccs4)ccc3c2N)n1 here?
Answer: inconclusive [inhibitor, full curve]

Question: How did the Potency turn out when Cc1cc2occ(CC(=O)NC3=NCCS3)c2cc1C(C)C was run?
Answer: inactive

Question: How did the Potency turn out when O=C(c1ccc(COc2ccccc2[N+](=O)[O-])o1)N1CCCCCC1 was run?
Answer: inactive

Question: Which Potency does the source give for O=C(Nc1ccc(O)cc1)c1ccc2c(c1)C(=O)N(Cc1ccco1)C2=O here?
Answer: active: 14.1 µM

Question: For O=C(O)CCN1C(=O)c2ccc(NC(=O)c3cccs3)cc2C1=O, which Potency is on record?
Answer: inconclusive [inhibitor, single point]

Question: With COc1ccc(-n2c(O)cnc2Nc2nc(C)cc(C)n2)cc1OC as the compound, how does the Potency read?
Answer: inconclusive [inhibitor, single point]

Question: How did the Potency turn out when COc1cccc2c1C(=O)C=C(C)C2=O was run?
Answer: inconclusive [inhibitor, single point]

Question: Cc1sc(NC(=O)/C=C/c2ccco2)c(C(=O)OC(C)C)c1C was tested. Which Potency did it give?
Answer: inconclusive [inhibitor, single point]

Question: With Cc1ccccc1OCCCN1C(=O)C(=O)c2cccc(C)c21 as the compound, how does the Potency read?
Answer: active: 0.112 µM

Question: CCc1ccc(S(=O)(=O)Nc2ccc(-c3nc4cccnc4s3)cc2)s1 was tested. Which Potency did it give?
Answer: inconclusive [inhibitor, partial curve]

Question: O=C(NCc1ccc(F)cc1)c1noc2c1CCCC2 was tested. Which Potency did it give?
Answer: inconclusive [inhibitor, single point]

Question: O=C(N/N=C/C1CCCCC1)c1cc(Cl)ccc1O was tested. Which Potency did it give?
Answer: inconclusive [inhibitor, single point]

Question: O=C(CSCc1c(F)cccc1Cl)NCc1ccncc1 was tested. Which Potency did it give?
Answer: inconclusive [inhibitor, single point]

Question: COC(=O)CC(NC(=O)c1cccs1)c1ccc(OC)c(OC)c1 (stereo not drawn) was tested. Which Potency did it give?
Answer: inactive

Question: Which Potency does the source give for N#Cc1cn(CC(=O)N2CCc3ccccc3C2)c2ccccc12 here?
Answer: inconclusive [inhibitor, single point]

Question: How did the Potency turn out when Cc1nn(C)cc1CNC(=O)c1cnn2c1NC(c1ccc(Br)cc1)CC2C(F)(F)F (stereo not drawn) was run?
Answer: inactive

Question: COc1cc(OC)c(C2CC(=O)N3CN(c4ccccc4)CSC3=C2C#N)cc1OC (stereo not drawn) was tested. Which Potency did it give?
Answer: active: 8.91 µM

Question: Which Potency does the source give for Cc1cc(C)c2nc(N3CCCN(C(=O)c4cnccn4)CC3)c(C#N)cc2c1 here?
Answer: inconclusive [inhibitor, partial curve]

Question: How did the Potency turn out when CC(=O)c1ccc(NC(=O)Nc2cccc(Cl)c2)cc1 was run?
Answer: inactive

Question: Which Potency does the source give for CC(C)(C)C1CCc2sc(-c3nnc(CCl)o3)cc2C1 (stereo not drawn) here?
Answer: active: 22.4 µM

Question: How did the Potency turn out when COc1ccc(N2CCN(CCCNC(=O)Nc3ccccc3)CC2)cc1 was run?
Answer: inconclusive [inhibitor, single point]

Question: Which Potency does the source give for Cc1ccc(C(=O)NC(=S)NCC2CCCO2)cc1[N+](=O)[O-] (stereo not drawn) here?
Answer: active: 14.1 µM

Question: With O=C(Nc1ccc2c(c1)OCO2)OCc1ccccc1 as the compound, how does the Potency read?
Answer: inconclusive [inhibitor, single point]

Question: Cc1ncc(CO)c(/C=N/NC(=O)c2cc3c(s2)CCCC3)c1O was tested. Which Potency did it give?
Answer: inconclusive [inhibitor, single point]

Question: With COc1cc(C(=O)NCc2nnc(SCC(=O)Nc3cc(C)cc(C)c3)o2)cc(OC)c1OC as the compound, how does the Potency read?
Answer: inconclusive [inhibitor, single point]

Question: Which Potency does the source give for O=C(c1cccc(Oc2ccc([N+](=O)[O-])cc2Cl)c1)N1CCCCC1 here?
Answer: inconclusive [inhibitor, single point]

Question: With C=CCn1c(=O)c2ccccc2n2c(SCC(=O)N3CCCc4ccccc43)nnc12 as the compound, how does the Potency read?
Answer: active: 4.47 µM

Question: For O=C(c1cccc(F)c1)N1CCC[C@@]2(CCN(Cc3ccccc3)C2)C1, which Potency is on record?
Answer: inactive

Question: Which Potency does the source give for CC(=O)Nc1ccc(OS(=O)(=O)c2ccc([N+](=O)[O-])cc2)cc1 here?
Answer: active: 25.1 µM

Question: With Cc1cccc(N2C(=O)/C(=C\c3ccc(OC(F)F)cc3)c3ccccc3C2=O)c1 as the compound, how does the Potency read?
Answer: inconclusive [inhibitor, single point]

Question: Which Potency does the source give for O=C(NCc1ccccc1)Nc1cccn(Cc2ccccc2Cl)c1=O here?
Answer: inconclusive [inhibitor, partial curve]

Question: With Cn1c(=O)oc2cc(S(=O)(=O)NCCC(=O)N3CC=C(c4ccccc4)CC3)ccc21 as the compound, how does the Potency read?
Answer: inconclusive [inhibitor, single point]

Question: For Cc1ccc(SC(C)c2nc(-c3cccnc3)no2)cc1 (stereo not drawn), which Potency is on record?
Answer: inconclusive [inhibitor, single point]

Question: O=C(NN=C1CCN(Cc2ccccc2)CC1)c1cc(Br)ccc1O was tested. Which Potency did it give?
Answer: inconclusive [inhibitor, partial curve]

Question: For COc1ccc2c(CSc3nc4nc(C)cc(C)n4n3)cc(=O)oc2c1, which Potency is on record?
Answer: inactive

Question: For CCCCC/C=C\C/C=C\C/C=C\C/C=C\CCCCCC(=O)NCCCC(=O)O, which Potency is on record?
Answer: inactive

Question: Which Potency does the source give for CCN1C(=O)/C(=C\c2cn(CCC#N)nc2-c2ccc(F)cc2)SC1=S here?
Answer: inactive

Question: Which Potency does the source give for O=C(CN1C(=O)C2C3C=CC(C4CC34)C2C1=O)Nc1cccc2ncccc12 (stereo not drawn) here?
Answer: inactive
